Assay results taken from the RNAGym collection of RNA variant scans (doi:10.7554/elife.90254).
The source gives no read counts; variants with many changes may rest on few reads.

B1: LINE1-mini (parent)
chain: GGCAGAGCUCAACACAGCGUGGCAAAGUGGCUGUGGCUAGACUGCC

Variants of: B1
Assay: self-cleavage, relative activity (ratio to wild type); higher = more cleavage; in vitro, sequencing; the parent is a self-cleaving ribozyme

Row | Variant | self-cleavage
1 | GGCAGAGCUCAACACAGCGUGGCAAAGUGGCUGUGUCUAGACUCCA [G36U G44C C46A] | 0.06
2 | GGCAGAGCUCAACACAGCGUGGUAAAGUGGCUGUGGCGAAACUGCC [C23U U38G G40A] | 0.04
3 | GGCAGAGCUCAACACAGUGUGGCAUAGUGGCUGUGGCUAGACUCCC [C18U A25U G44C] | 0.25
4 | GGCAGAGCUCAACACAGCGCUGCAAAGUGGCUGUGGCUAGACUGAC [U20C G21U C45A] | 0.14
5 | GUCAGAGCUCAACACAGCGUGGCAAAGUGACUGUAGCUAGACUGCC [G2U G30A G35A] | 0.02
6 | GGCAGAGCUAAACACAGCGUGGCAAAGUGGCUGCGGCUAGACCGCC [C10A U34C U43C] | 0.03
7 | GGCAGACCUCAAUACAGCGUGUCAAAGUGGCUGUGGCGUGAAUGCC [G7C C13U G22U U38G A39U C42A] | 0.06
8 | AGCAGAUCUCGACACAGCGUGGCAAAGGGGCUGUGGCUAGACUGCC [G1A G7U A11G U28G] | 0.04
9 | GGCAGAGCUUAACACAGCGUGGCAAAGUGGCUGUGGCUACACUGGC [C10U G40C C45G] | 0.08
10 | GGCAGAACUCAACACAGCCUGGCAAAUUGGCUGUGGCUAGACUGCC [G7A G19C G27U] | 0.04
11 | GGCAGAGCUCCACACAGUUUGCCAAAGUGGCUGUGGCUAGACUGCC [A11C C18U G19U G22C] | 0
12 | GGCAGAGCUCAACACAGCGGUGCAAAGUGGCUGUGCCUAAACUGCC [U20G G21U G36C G40A] | 0.36
13 | AGCUGAGCUCGACACAGCCUGGCAAAGUGGCUGGGGCUAGACUGCC [G1A A4U A11G G19C U34G] | 0.05
14 | GGCAGAGCUCAACACAGCGUGGCCAAGUGGGUUAGGCUAGACUGCC [A24C C31G G33U U34A] | 0.03
15 | GGCAGAGCGCAUUAGAGCGUGGCAAAGUGGUUGUGGCUAGACUGCC [U9G A12U C13U C15G C31U] | 0.02
16 | GGCAGAGCUCAACACAGCGGGGCACUGUGGCUGUGACUAGACUGCC [U20G A25C A26U G36A] | 0.08
17 | GUCAGAGCUCAACACAGCGUGGCAAUGUGGCUGGGGCUAGAUUGCC [G2U A26U U34G C42U] | 0
18 | GGCAGAUCUCAACACAGCGAUGCAAAGUGGCUGUGGCUAGACUGCC [G7U U20A G21U] | 0.03
19 | GGCAGAGCUCAACACAGCGUGGCAAUGUGGCUAUGGAUAGACUGCC [A26U G33A C37A] | 0.04

Row | Variant | self-cleavage
20 | GGCAGAGCUCAACACAGCGUGGCAAAGUGUUUGUGGCUAGACUGCA [G30U C31U C46A] | 0.01
21 | GGCGGAGCUCAACACAGCGUGGCAAAGUGGCGGUGGCUAGAUUGCC [A4G U32G C42U] | 0.05
22 | GGCAGAGCUCAACACAGACUGGCAAAGUGGCUGUGGCGAGGCUGCC [C18A G19C U38G A41G] | 0.02
23 | GGCAGAGCACAACACAGCGUAGUAAAGUGGCUGUGGCUAGACUGCC [U9A G21A C23U] | 0.49
24 | ACCAGUGCUCAACACGUCGUGGCAAAGUGGCUGUGGCUAGACUGCC [G1A G2C A6U A16G G17U] | 0.04
25 | GGCAGAGCUCAAAACAGCGUGGCAAAGUGGCUGAGGCUAAGCUGCG [C13A U34A G40A A41G C46G] | 0.01
26 | GGCAGGGCUCAACACAGCGAGGCAAAGUGGCUUUGGCUAGACUGCC [A6G U20A G33U] | 0.03
27 | GGAAGCGCACAACACAGCGUGGCAAAGUGGCUGUGGCUAGAAUGCC [C3A A6C U9A C42A] | 0.24
28 | GGCAGACCUCAACACAGCGUGGCAAAGUGGCUGUAGCUAGAUUGCC [G7C G35A C42U] | 0.06
29 | UGCAGAGCUCAACACAGCGUGGCAAAGUGACUUUGGCUUGACUGGC [G1U G30A G33U A39U C45G] | 0.05
30 | GCCAGAGCUCAACACUGCGUAGCAAAGUGGCUGUGGCUAGACUGCC [G2C A16U G21A] | 0.07
31 | AGCAGAGCUCAACACACCGUGGCAAAGAGCUUGUGGCUAGUUUGCC [G1A G17C U28A G30C C31U A41U C42U] | 0.02
32 | GGCAGAGCUCAACACAGCGUGGCAAAGUGGCUAUGCCUAGACUGUC [G33A G36C C45U] | 0.03
33 | GGCAGAGCUCAACAGGGCGUGGCCAAGUGGCUGUGGCUGGACUGCC [C15G A16G A24C A39G] | 0.03
34 | GGCAGAGCUCAACACAGCGUGGCAAAGUGGCUGUGGCUACAGUCCG [G40C C42G G44C C46G] | 0.07
35 | GGCAGAGAUCAACACAGCGUGGCAAAGUGGCUGCGGCUAAACUGCC [C8A U34C G40A] | 0.05
36 | GGCAGAGCUCAAGACAGCGUGGCAAAUUGGCUGUGGCUAGACUGAC [C13G G27U C45A] | 0.02
37 | GGCAGAGCUCACCACACCGUGGCAAAGUGGCUGUGACUAGCCUGCC [A12C G17C G36A A41C] | 0.02
38 | UGCAGAGCUCAACACGGCGUGGCAAAGUGGCUGUGGCUAAACUGCC [G1U A16G G40A] | 0.04

Row | Variant | self-cleavage
39 | GGCACAGCUCAACCCAGCGUGGCAAAGUGGCUGUGGCUAGACUGAC [G5C A14C C45A] | 0.04
40 | GGCAGAGCACAACACAGCGUGGCAAAGUGGGGGUGGCUAGACUGCC [U9A C31G U32G] | 0.19
41 | GGCAGAUUUCAACACAGCGUGGCAAAGUGUCUGUGGCUAUACAGCC [G7U C8U G30U G40U U43A] | 1.21
42 | GGCAGAGCUCAACACAGCGUGACAAAGUGGCUGUGGUUCGACUGCC [G22A C37U A39C] | 0.07
43 | GGCAGAGCUCAACACAACGAGGCAAAGUGCCUGUGGCUAGACCGCC [G17A U20A G30C U43C] | 0.04
44 | GGCAGAGCUCAACACAGCGUGGCAUAGUGGCUGUGGGGAGACUGCC [A25U C37G U38G] | 0.01
45 | GGCAUAGCUCACCGCAGCGUGGCAAAGUGGCUGUGGCUAGACCGCC [G5U A12C A14G U43C] | 0.03
46 | GGCAGAGCUCAACACAGUGUGUCAUAGUGGCUGUGGCUAGACUGCC [C18U G22U A25U] | 0.21
47 | GGCAGAGGGCUACACAGCGUGGGAAAGUGGCUGUGGCUAGACUGCC [C8G U9G A11U C23G] | 0.01
48 | AGCAGAGCUCAACACAGCGUGGUGAAGUGGCUGUGGCUAGACUGCC [G1A C23U A24G] | 0.61
49 | AGCAGAGUUCAACACAGCGUGGCAAAGACGAUGUGGCUAGACUGCC [G1A C8U U28A G29C C31A] | 0.96
50 | GGCAGAUCUCAACACAGCGUGGCAAAGUGGCUGUAGCUACACUGCC [G7U G35A G40C] | 0.08
51 | GGCAGAGCUCACCAUAGCGUAGCAAAGUGGCUGUGGCUAGACUGCC [A12C C15U G21A] | 0.03
52 | GCCAGAGCGCAACAUAGCGUGGCAAAGUGGGGGUGGCUAGACGGCC [G2C U9G C15U C31G U32G U43G] | 0
53 | GGCAAAGCUCAAUACGUCGUGGCAAAGUGGCUGUGGCUGGACUGCG [G5A C13U A16G G17U A39G C46G] | 0.06
54 | GGCAGAGCACAACAAACCGUGGCAAAGUGGCUGUGGCUGGACUGCC [U9A C15A G17C A39G] | 0.01
55 | UGCAGAGCUCAACGCAGCAUGGCAAAGUGGCUGUGGCUAGUCUGCC [G1U A14G G19A A41U] | 0.19
56 | GGCACAGCUGAAGACAGCGUGGCAAAGUGGCUGUGGCUAGACUGCC [G5C C10G C13G] | 0.03
